Reference: the supplement of paper PMC12217912
The list shows a part of the results. Sequences were assembled here from the parent chain. Values near 0.05 are background.

B1: TEV protease; numbered along this chain (parent)
chain: MGESLFKGPRDYNPISSSICHLTNESDGHTTSLYGIGFGPFIITNKHLFRRNNGTLVVQSLHGVFKVKDTTTLQQHLVDGRDMIIIRMPKDFPPFPQKLKFREPQREERICLVTTNFQTKSMSSMVSDTSCTFPSGDGIFWKHWIQTKDGQCGSPLVSTRDGFIVGIHSASNFTNTNNYFTSVPKNFMELLTNQEAQQWVSGWRLNADSVLWGGHKVFMVKPEEPFQPVKEATQL

Variants of: B1
Experiment: raw area under fraction-flipped curve 0-4 h after induction (AUC4h, not background-subtracted), DNA-recorder readout of cleavage of the substrate (dimensionless); higher = more cleavage of the substrate by the protease variant
Conditions: temperature: 34 °C; time window: 0-4 h after rhamnose induction
Procedure: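 In vivo DNA recorder in E. coli TOP10(DE3) ΔrhaA at 34 °C. Each TEVp single-site mutant (parent TEVp 0) is paired with a single-site variant of the 7-mer TEVs (canonical ENLYFQ|S). The substrate sits between flexible linkers in a Bxb1-sfGFP-TEVs-SsrA fusion, so cleavage stabilises Bxb1 and speeds flipping of a recombination array, read by NGS. The value is the raw area under the fraction-flipped curve over 0-4 h after rhamnose induction (AUC4h), with ≥20 reads per time point. It is not background-subtracted; inactive controls average about 0.047.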
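Further: Bxb1 expression induced with 0.2% (w/v) L-rhamnose at OD600 near 0.5, cultures sampled hourly, flipped fraction per protease–substrate barcode pair counted by paired-end Illumina sequencing.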

Row | Variant | area with substrate ENLAFQS | area with substrate ENLDFQS | area with substrate ENLEFQS | area with substrate ENLFFQS | area with substrate ENLIFQS | area with substrate ENLLFQS | area with substrate ENLNFQS | area with substrate ENLPFQS | area with substrate ENLWFQS | area with substrate ENLHFQS | area with substrate ENLKFQS | area with substrate ENLMFQS | area with substrate ENLQFQS | area with substrate ENLRFQS | area with substrate ENLTFQS | area with substrate ENLVFQS | area with substrate ENLSFQS | area with substrate ENLCFQS | area with substrate ENLGFQS
1 | Q146F | 0.0678 | 0.0808 | 0.0614 | 0.0789 | 0.071 | 0.0863 | 0.0601 | 0.0692 | 0.0678 | – | – | – | – | – | – | – | – | – | –
2 | Q146A | 0.0521 | 0.0516 | 0.0618 | 0.114 | 0.089 | 0.0758 | 0.0653 | 0.0414 | – | 0.07 | 0.0734 | 0.0949 | 0.063 | 0.12 | 0.0697 | 0.0928 | – | – | –
3 | Q146W | 0.0599 | 0.0525 | – | 0.102 | 0.102 | – | 0.0523 | – | 0.0708 | 0.0647 | – | – | 0.0699 | – | 0.0484 | – | 0.0675 | – | –
4 | V165Y | 0.0501 | – | 0.0431 | 0.059 | 0.0517 | 0.0579 | 0.0597 | 0.0293 | – | 0.0501 | 0.0551 | – | – | 0.0571 | 0.0478 | – | 0.0515 | 0.0392 | –
5 | K148H | 0.0491 | 0.0598 | 0.0617 | 0.0747 | – | – | 0.0694 | 0.0689 | – | 0.0547 | 0.0624 | – | – | – | 0.0346 | – | 0.0672 | – | –
6 | K148V | 0.0553 | 0.0672 | 0.0673 | 0.0962 | 0.0896 | 0.0796 | 0.065 | – | – | 0.0665 | 0.0695 | – | – | – | – | – | 0.0758 | 0.0771 | –
7 | S158F | 0.0377 | 0.0518 | 0.0505 | 0.055 | 0.0672 | – | 0.0622 | 0.0415 | 0.0524 | 0.0533 | 0.0646 | – | – | 0.0587 | – | – | – | – | –
8 | S158P | 0.0326 | 0.0552 | 0.0436 | 0.0673 | 0.0531 | – | 0.0519 | – | 0.0415 | – | 0.0589 | – | – | – | – | 0.0423 | 0.0555 | 0.0659 | 0.0514
9 | T147H | 0.0783 | 0.0644 | 0.0681 | 0.0658 | 0.0618 | – | 0.0638 | 0.059 | 0.0521 | 0.059 | 0.0592 | – | – | 0.0564 | – | 0.0566 | 0.0656 | 0.0413 | –
10 | T147A | 0.0545 | 0.061 | 0.0592 | 0.0712 | 0.0601 | 0.0602 | 0.0625 | – | – | – | 0.0648 | 0.0772 | 0.0705 | 0.0583 | – | – | 0.0463 | 0.0457 | –
11 | S123Y | 0.0622 | 0.0644 | – | – | – | 0.0645 | 0.0698 | – | – | 0.0564 | 0.0731 | – | – | – | – | – | 0.0734 | – | 0.0702
12 | S123C | 0.0421 | 0.059 | – | 0.0849 | 0.0756 | 0.0667 | 0.0622 | 0.0721 | 0.0694 | 0.0785 | 0.0951 | – | 0.0647 | 0.0675 | – | – | 0.0753 | 0.0714 | –
13 | N178D | 0.0883 | 0.0829 | – | – | – | – | – | – | – | – | 0.0694 | 0.0576 | – | – | – | 0.0603 | 0.057 | 0.0268 | –
14 | F173C | 0.0828 | 0.0649 | – | 0.0734 | – | 0.0585 | – | 0.0639 | – | 0.0431 | – | 0.0985 | – | – | – | – | 0.0513 | 0.0574 | –
15 | F173Y | 0.0615 | – | – | – | 0.0658 | – | 0.0917 | 0.0539 | – | 0.067 | – | – | 0.0552 | 0.0597 | – | – | 0.053 | – | –
16 | S127C | 0.0706 | 0.0656 | 0.0698 | 0.0852 | 0.103 | 0.0589 | 0.0742 | 0.0239 | – | 0.071 | 0.0816 | – | 0.0836 | 0.0781 | – | – | 0.0702 | 0.0969 | –
17 | P134N | 0.0619 | 0.0506 | – | – | 0.073 | 0.0623 | 0.0543 | 0.0564 | – | – | 0.0636 | 0.0589 | – | 0.0649 | – | 0.0586 | 0.0647 | – | –
18 | P134V | 0.0619 | 0.062 | 0.0647 | 0.0792 | 0.0616 | 0.0921 | 0.0646 | 0.0626 | 0.0603 | 0.0663 | 0.0479 | 0.0913 | 0.0731 | 0.061 | – | 0.0624 | 0.0863 | – | 0.0667
19 | K120S | 0.0626 | – | 0.0589 | 0.102 | – | – | 0.0576 | 0.0687 | 0.0677 | 0.0706 | 0.06 | – | 0.0641 | 0.0718 | 0.0567 | – | 0.0696 | 0.0635 | –
20 | N177D | 0.0686 | 0.0486 | 0.0814 | 0.0877 | 0.0853 | 0.0698 | 0.0597 | 0.0671 | – | 0.0571 | 0.0826 | – | – | – | – | – | 0.0548 | 0.0714 | –
21 | C152N | 0.0609 | 0.0689 | – | 0.0642 | 0.0569 | – | 0.07 | 0.0304 | – | – | 0.0524 | – | – | 0.0553 | – | 0.0482 | 0.0613 | – | –
22 | Q118K | 0.0693 | – | 0.065 | 0.0823 | – | – | 0.0598 | 0.066 | – | 0.0678 | 0.0632 | 0.0927 | 0.0822 | 0.0667 | 0.0829 | – | 0.0641 | – | –
23 | Q118I | 0.0486 | 0.0618 | 0.0706 | 0.0806 | 0.0795 | 0.0765 | 0.0551 | 0.0685 | – | – | 0.0862 | – | 0.123 | 0.0736 | – | – | 0.0657 | 0.0711 | –
24 | L156T | 0.0687 | 0.0374 | 0.0439 | 0.0738 | 0.0776 | 0.0559 | 0.0614 | 0.0596 | 0.0656 | – | 0.0713 | 0.0763 | 0.0713 | – | 0.0667 | 0.0638 | 0.0734 | 0.0638 | –
25 | M122R | 0.0752 | – | – | 0.112 | 0.0914 | – | 0.0368 | 0.0492 | – | 0.0794 | – | – | 0.0617 | 0.0889 | – | – | 0.0673 | 0.0539 | –
26 | S124L | 0.069 | 0.0643 | 0.0569 | 0.0561 | 0.0584 | 0.0417 | 0.0637 | 0.0719 | – | 0.0645 | – | – | 0.0666 | – | – | – | 0.0454 | – | 0.0559
27 | S124H | 0.0676 | 0.0638 | 0.0583 | 0.113 | 0.0787 | 0.0752 | – | – | 0.0522 | 0.0717 | 0.09 | – | – | – | – | – | – | – | 0.0655
28 | D137I | 0.077 | 0.0661 | – | 0.0812 | – | – | 0.0666 | 0.0638 | – | 0.0595 | 0.0686 | – | – | 0.0767 | – | 0.0695 | 0.0552 | 0.0912 | –
29 | T129N | 0.0422 | 0.0669 | 0.0527 | 0.0863 | – | – | 0.0754 | 0.0712 | 0.0757 | 0.0655 | 0.0666 | – | 0.0671 | – | – | 0.0755 | 0.068 | 0.0603 | 0.0605
